Data as given in article PMC5892938.
The list shows a part of the results. At the low end of the ranking, values are background and their order means little.

target: GST-SBP-SLBP (stem-loop binding protein) (UniProt Q14493); assay: targeted RNA Bind-n-Seq; settings: RBNS binding buffer: 25 mM Tris pH 7.5, 150 mM KCl, 3 mM MgCl2, 0.1% Tween, 0.5 mg/mL BSA, 1 mM DTT; 27 nM protein, 750 pM RNA pool; temperature not stated; high values mean tight binding;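 note: DESeq read counts versus GST-SBP nonspecific binding control pulldown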

| Sequence | binding signal (log2 fold change) |
| --- | --- |
| GGUCACGUCUCAAUCAACUCUUAGGAGGGGGGGAAAACCCCUUUACCCUCAACAUCAACAGCUCGCAGUCAAG | -0.434 |
| GGUCACGUCUCAAUCAACUCAAUCCCAGGAGUUUCCUCCUGUUAAUUCAACAGCUCGCAGUCAAG | 0.0542 |
| GGUCACGUCUCAAUCAACUCAAUCUCAGGAGUUUCCUCCUGUAAUCUCAACAGCUCGCAGUCAAG | 0.175 |
| GGUCACGUCUCAAUCAACUCUUUUCCCAGGGAAACCCCUGGUAUUUUCAACAGCUCGCAGUCAAG | 0.194 |
| GGUCACGUCUCAAUCAACUCAGUCCCAGGAGUUUACUCCUGCUAUCUCAACAGCUCGCAGUCAAG | 0.229 |
| GGUCACGUCUCAAUCAACUCUUCCCCCAGGGAAAGCCCUGGCUUUUUCAACAGCUCGCAGUCAAG | -0.229 |
| GGUCACGUCUCAAUCAACUCAUUCUCAGGAGUUUUCUCCUGCAUUCUCAACAGCUCGCAGUCAAG | 0.141 |
| GGUCACGUCUCAAUCAACUCAUCGUCAGGAGUUUCCUCCUGCAUUUUCAACAGCUCGCAGUCAAG | -0.0702 |
| GGUCACGUCUCAAUCAACUCAAUCUCCAGGGAAACCCCUGGCAUAGUCAACAGCUCGCAGUCAAG | 0.27 |
| GGUCACGUCUCAAUCAACUCAUUUUCCAGGGAAAUCCCUGGCGUUUUCAACAGCUCGCAGUCAAG | 0.0422 |
| GGUCACGUCUCAAUCAACUCAGUCUCAGGAGUUUUCUCCUGCUAUCUCAACAGCUCGCAGUCAAG | 0.143 |
| GGUCACGUCUCAAUCAACUCAUCCCCAGGAGUUUACUCCUGUUAAGUCAACAGCUCGCAGUCAAG | 0.132 |
| GGUCACGUCUCAAUCAACUCUACUUCAGGAGUUUACUCCUGUAUUCUCAACAGCUCGCAGUCAAG | 0.0404 |
| GGUCACGUCUCAAUCAACUCUUCCUCCAGGGAAAACCCUGGCAUACUCAACAGCUCGCAGUCAAG | -0.0223 |
| GGUCACGUCUCAAUCAACUCUUUCUCCAGGGAAAUCCCUGGCAUGUUCAACAGCUCGCAGUCAAG | 0.0862 |
| GGUCACGUCUCAAUCAACUCAUCUUCAGGAGUUUUCUCCUGUUUACUCAACAGCUCGCAGUCAAG | 0.0707 |
| GGUCACGUCUCAAUCAACUCAAUUCCCAGGGAAAGCCCUGGUAUUCUCAACAGCUCGCAGUCAAG | -0.202 |
| GGUCACGUCUCAAUCAACUCUUCUCCCAGGGAAAUCCCUGGUUAUUUCAACAGCUCGCAGUCAAG | -0.126 |
| GGUCACGUCUCAAUCAACUCUUCCCCCAGGGAAAUCCCUGGUUUACUCAACAGCUCGCAGUCAAG | -0.0579 |
| GGUCACGUCUCAAUCAACUCACACGAGGGGGGGAAAACCCCUUUGCCCUCAUCUUCAACAGCUCGCAGUCAAG | -0.392 |
| GGUCACGUCUCAAUCAACUCAUCAGAGGGGGGGAAAACCCCUUUACCCUCAUUAUCAACAGCUCGCAGUCAAG | 0.163 |
| GGUCACGUCUCAAUCAACUCAAAAGAGGGGGGGAAAACCCCUUUACCCUCGAAUUCAACAGCUCGCAGUCAAG | 0.152 |
| GGUCACGUCUCAAUCAACUCAAUCCCAGGAGUUUGCUCCUGCAAUGUCAACAGCUCGCAGUCAAG | 0.182 |
| GGUCACGUCUCAAUCAACUCAAGGUCAGGAGUUUUCUCCUGUAUAUUCAACAGCUCGCAGUCAAG | -0.0343 |
| GGUCACGUCUCAAUCAACUCAUUUUCCAGGGAAAGCCCUGGCUUAUUCAACAGCUCGCAGUCAAG | -0.195 |

| Sequence | binding signal (log2 fold change) |
| --- | --- |
| GGUCACGUCUCAAUCAACUCUCCAGAGGGGGGGAAAACCCCUUUGCCCUCAUAUUCAACAGCUCGCAGUCAAG | -0.273 |
| GGUCACGUCUCAAUCAACUCUACUUCCAGGGAAAGCCCUGGUAAUUUCAACAGCUCGCAGUCAAG | -0.174 |
| GGUCACGUCUCAAUCAACUCUUUUCCCAGGGAAACCCCUGGCUAUUUCAACAGCUCGCAGUCAAG | 0.152 |
| GGUCACGUCUCAAUCAACUCAAUCCCCAGGGAAAUCCCUGGCUUUUUCAACAGCUCGCAGUCAAG | 0.111 |
| GGUCACGUCUCAAUCAACUCAUUUCCCAGGGAAAGCCCUGGUAUUCUCAACAGCUCGCAGUCAAG | -0.0221 |
| GGUCACGUCUCAAUCAACUCAUUUUCAGGAGUUUUCUCCUGUAAUUUCAACAGCUCGCAGUCAAG | 0.0767 |
| GGUCACGUCUCAAUCAACUCUUCUUCAGGAGUUUCCUCCUGUAAUUUCAACAGCUCGCAGUCAAG | 0.219 |
| GGUCACGUCUCAAUCAACUCAAUUUCCAGGGAAACCCCUGGCGUUUUCAACAGCUCGCAGUCAAG | -0.244 |
| GGUCACGUCUCAAUCAACUCUAUUUCAGGAGUUUCCUCCUGUAUUCUCAACAGCUCGCAGUCAAG | 0.176 |
| GGUCACGUCUCAAUCAACUCAUCGUCAGGAGUUUUCUCCUGUAUAUUCAACAGCUCGCAGUCAAG | -0.106 |
| GGUCACGUCUCAAUCAACUCUCAAGAGGGGGGGAAAACCCCUUUACCCUCGUCCUCAACAGCUCGCAGUCAAG | 0.105 |
| GGUCACGUCUCAAUCAACUCAUUCCCAGGAGUUUUCUCCUGCAUAUUCAACAGCUCGCAGUCAAG | 0.237 |
| GGUCACGUCUCAAUCAACUCAUCCCCAGGAGUUUACUCCUGCAAAGUCAACAGCUCGCAGUCAAG | 0.0527 |
| GGUCACGUCUCAAUCAACUCAUCGUCAGGAGUUUCCUCCUGUAUUCUCAACAGCUCGCAGUCAAG | 0.103 |
| GGUCACGUCUCAAUCAACUCUAUGUCAGGAGUUUUCUCCUGUUAAUUCAACAGCUCGCAGUCAAG | 0.258 |
| GGUCACGUCUCAAUCAACUCAAGUCCAGGAGUUUUCUCCUGUAAUCUCAACAGCUCGCAGUCAAG | 0.114 |
| GGUCACGUCUCAAUCAACUCUAUCUCCAGGGAAAUCCCUGGUAAACUCAACAGCUCGCAGUCAAG | 0.306 |
| GGUCACGUCUCAAUCAACUCUUCCCCAGGAGUUUUCUCCUGUAUUCUCAACAGCUCGCAGUCAAG | -0.0726 |
| GGUCACGUCUCAAUCAACUCAAUUCCCAGGGAAAGCCCUGGCAUACUCAACAGCUCGCAGUCAAG | 0.0504 |
| GGUCACGUCUCAAUCAACUCUAGUCCAGGAGUUUUCUCCUGCAAAUUCAACAGCUCGCAGUCAAG | -0.152 |
| GGUCACGUCUCAAUCAACUCUAUCCCCAGGGAAACCCCUGGCUUACUCAACAGCUCGCAGUCAAG | 0.376 |
| GGUCACGUCUCAAUCAACUCAUCCUCAGGAGUUUUCUCCUGUUUUUUCAACAGCUCGCAGUCAAG | -0.187 |
| GGUCACGUCUCAAUCAACUCUUUCUCCAGGGAAAGCCCUGGCUUUUUCAACAGCUCGCAGUCAAG | 0.0407 |
| GGUCACGUCUCAAUCAACUCAUCCUCCAGGGAAAACCCUGGCUUACUCAACAGCUCGCAGUCAAG | -0.171 |
| GGUCACGUCUCAAUCAACUCACUAGAGGGGGGGAAAACCCCUUUACCCUCAAUCUCAACAGCUCGCAGUCAAG | -0.13 |

| Sequence | binding signal (log2 fold change) |
| --- | --- |
| GGUCACGUCUCAAUCAACUCAAUCCCCAGGGAAAACCCUGGCAUUUUCAACAGCUCGCAGUCAAG | -0.15 |
| GGUCACGUCUCAAUCAACUCUUCCUCAGGAGUUUCCUCCUGCUAUCUCAACAGCUCGCAGUCAAG | 0.184 |
| GGUCACGUCUCAAUCAACUCAAUUCCAGGAGUUUUCUCCUGUUAACUCAACAGCUCGCAGUCAAG | -0.101 |
| GGUCACGUCUCAAUCAACUCUUUCGAGGGGGGGAAAACCCCUUUACCCUCUUUCUCAACAGCUCGCAGUCAAG | -0.0974 |
| GGUCACGUCUCAAUCAACUCAUUCUCCAGGGAAACCCCUGGCAAUCUCAACAGCUCGCAGUCAAG | 0.0751 |
| GGUCACGUCUCAAUCAACUCAGUCUCAGGAGUUUUCUCCUGCAUAGUCAACAGCUCGCAGUCAAG | -0.097 |
| GGUCACGUCUCAAUCAACUCAUUCGAGGGGGGGAAAACCCCUUUACCCUCUCCAUCAACAGCUCGCAGUCAAG | -0.345 |
| GGUCACGUCUCAAUCAACUCAAUUUCAGGAGUUUCCUCCUGCAUACUCAACAGCUCGCAGUCAAG | -0.0222 |
| GGUCACGUCUCAAUCAACUCUUUCCCAGGAGUUUUCUCCUGUAAAUUCAACAGCUCGCAGUCAAG | -0.00663 |
| GGUCACGUCUCAAUCAACUCUAUUCCAGGAGUUUCCUCCUGCUAUUUCAACAGCUCGCAGUCAAG | -0.0335 |
| GGUCACGUCUCAAUCAACUCUAUCCCCAGGGAAAGCCCUGGUUUAUUCAACAGCUCGCAGUCAAG | -0.203 |
| GGUCACGUCUCAAUCAACUCAAUUUCAGGAGUUUACUCCUGCAAACUCAACAGCUCGCAGUCAAG | -0.0789 |
| GGUCACGUCUCAAUCAACUCAUCAGAGGGGGGGAAAACCCCUUUGCCCUCCAUAUCAACAGCUCGCAGUCAAG | -0.29 |
| GGUCACGUCUCAAUCAACUCUACUUCAGGAGUUUCCUCCUGCUAACUCAACAGCUCGCAGUCAAG | -0.00461 |
| GGUCACGUCUCAAUCAACUCAAUCCCCAGGGAAAUCCCUGGCAAACUCAACAGCUCGCAGUCAAG | 0.0306 |
| GGUCACGUCUCAAUCAACUCAUUUCCAGGAGUUUGCUCCUGUAUACUCAACAGCUCGCAGUCAAG | -0.178 |
| GGUCACGUCUCAAUCAACUCAUCUCCCAGGGAAACCCCUGGUUUUUUCAACAGCUCGCAGUCAAG | -0.0747 |
| GGUCACGUCUCAAUCAACUCUUCUUCAGGAGUUUCCUCCUGUAUACUCAACAGCUCGCAGUCAAG | -0.0691 |
| GGUCACGUCUCAAUCAACUCAUCUCCAGGAGUUUUCUCCUGUUAUCUCAACAGCUCGCAGUCAAG | 0.0608 |
| GGUCACGUCUCAAUCAACUCAUACGAGGGGGGGAAAACCCCUUUACCCUCAACUUCAACAGCUCGCAGUCAAG | -0.111 |
| GGUCACGUCUCAAUCAACUCUAUCUCAGGAGUUUUCUCCUGCUAAUUCAACAGCUCGCAGUCAAG | 0.0769 |
| GGUCACGUCUCAAUCAACUCUUUCCCAGGAGUUUUCUCCUGCUAAUUCAACAGCUCGCAGUCAAG | -0.0512 |
| GGUCACGUCUCAAUCAACUCAAUCCCCAGGGAAAUCCCUGGCUAUCUCAACAGCUCGCAGUCAAG | 0.242 |
| GGUCACGUCUCAAUCAACUCUAUUCCCAGGGAAAACCCUGGUAUAUUCAACAGCUCGCAGUCAAG | -0.105 |
| GGUCACGUCUCAAUCAACUCAAGUCCAGGAGUUUCCUCCUGCAAUGUCAACAGCUCGCAGUCAAG | 0.172 |
